Experimental data published in the RNAGym collection of RNA variant scans (doi:10.7554/elife.90254).
Read counts are not given, so values of variants with three or more changes are uncertain.

B1: LINE1-mini (parent)
chain: GGCAGAGCUCAACACAGCGUGGCAAAGUGGCUGUGGCUAGACUGCC

Variants of: B1
Experiment: self-cleavage, relative activity (ratio to wild type); higher = more cleavage; in vitro, sequencing; the parent is a self-cleaving ribozyme
G2U A12C G17U G44U showed a self-cleavage of 0.01. Work on G2U A26U U28G C42A yielded a self-cleavage of 0. G2U A14G A16C G27A showed a self-cleavage of 0.03. G2U A16U G21U C42U showed a self-cleavage of 0.03. G2U C3U G7A A16U G30A gave a self-cleavage of 0.09. G2U A14C C15A G36U showed a self-cleavage of 0.04. Variant G2U C3G A16G has a self-cleavage of 0.02. For G2U A11G G30U U38A A39C, the self-cleavage was 0. G2U A11U A14C U32C A39C showed a self-cleavage of 0.02. Work on G2C U20C G29A U38A A41G yielded a self-cleavage of 0.02. With G2U A14C G19C A41G the self-cleavage was 0.02. For G2U C8A C45A, the self-cleavage was 0.11. With G2C U20G G21C G33A the self-cleavage was 0.02. Variant G2C U32A A41G has a self-cleavage of 0.08. For G2C U9A C18U G29U C31A G36U C42U, the self-cleavage was 0.07. For G2C U9C A12U A14U, the self-cleavage was 0.02. Work on G2U C8G U9A G21U yielded a self-cleavage of 0.01. G2U C3A G22U G29U showed a self-cleavage of 0.91. In the case of G2U A12G U20A C23A, the self-cleavage is reported as 0.03. Work on G2U C3G G44C yielded a self-cleavage of 0.23. Variant G2U C3A G33C U43A has a self-cleavage of 0.04. With G2C U9A U32G G36U the self-cleavage was 0.06. G2U A4G A39U C45G showed a self-cleavage of 0.04. Variant G2C U9C G29A G30A U34A has a self-cleavage of 0.01. G2U C3U A14C C15U G19A A24C showed a self-cleavage of 0.04. In the case of G2C U9C G17U C23A G29A A41C, the self-cleavage is reported as 0.06. G2U A4G C10A G30A showed a self-cleavage of 0.03. G2U A16G A39G showed a self-cleavage of 0.05. Work on G2U A11U U32G G33A yielded a self-cleavage of 0.01. G2C U20G C31G U32C C46U gave a self-cleavage of 0.03. Variant G2U C3U C8U A25C has a self-cleavage of 0.05. G2U A6G U20G G33U showed a self-cleavage of 0.01. Variant G2U C8A C15A G33A has a self-cleavage of 0.12. G2U A6C C13U showed a self-cleavage of 0.08. Work on G2U C8G C10A C15G G17A yielded a self-cleavage of 0.01. With G2U A4U A14C U20A A26C U28A the self-cleavage was 0.02. Work on G2U C3U G17C G27C G30C C31G G35A A39G yielded a self-cleavage of 0.01. In the case of G2U A12U A16G G36A, the self-cleavage is reported as 0.02. In the case of G2U C8G C42A, the self-cleavage is reported as 0.04. Variant G2U C8U C15U G33U has a self-cleavage of 0.08. Work on G2U A26C C42G yielded a self-cleavage of 0.02. G2U C8U A16G U38C gave a self-cleavage of 0.08. Variant G2C G36C G40U has a self-cleavage of 0.02. G2U A14U G36U A41C G44A showed a self-cleavage of 0. Variant G2U C3A C18A G21C U32G C42A C45U has a self-cleavage of 0.05. G2U A4G G35U C37A showed a self-cleavage of 0.03. G2U C3A A12G C13U C46A showed a self-cleavage of 0.01. G2U A11G C45U showed a self-cleavage of 0.01. For G2U C3G C13A G21C C42U, the self-cleavage was 0.18. In the case of G2U C3U G17C U20A C23A G33U G36A C42G, the self-cleavage is reported as 0.01. For G2U A4G C8G U9C A24C U28C G44C, the self-cleavage was 0.01. Work on G2C U9C G27C G33C C37G yielded a self-cleavage of 0.01. With G2U C3U G19A C31G the self-cleavage was 0.11. Work on G2U C3A C18A G35C yielded a self-cleavage of 0.04. Work on G2U A12G G35A A41U yielded a self-cleavage of 0.08. With G2C U9C U28C the self-cleavage was 0.03. Work on G2U A11G U32G G36U U43A yielded a self-cleavage of 0. Work on G2U A14C G22C yielded a self-cleavage of 0.04. For G2U C3G A4G G5A A11U, the self-cleavage was 0.02. G2U A24G G29U C31A showed a self-cleavage of 0.02. In the case of G2U A11G A16U C18A, the self-cleavage is reported as 0.01. G2U C3U G5A G17U G29A showed a self-cleavage of 0.06. G2U C8U G17A G44A showed a self-cleavage of 0.12. G2U A6C A12C G17U showed a self-cleavage of 0.02. In the case of G2U A6G U9A U28A, the self-cleavage is reported as 0.03. G2U A14G G17A G35A G36U showed a self-cleavage of 0.05. G2C U20A A26U showed a self-cleavage of 0.08. Variant G2U C8A G35U has a self-cleavage of 0.03. Work on G2C U34A G36C C42U yielded a self-cleavage of 0.01. In the case of G2C U9G G19C G30A C31A, the self-cleavage is reported as 0.02. For G2C U38C C46A, the self-cleavage was 0.04. G2U A12G G27C showed a self-cleavage of 0.01. G2C U9C G22A C23A C37U gave a self-cleavage of 0.01. For G2U C3A A6U C23G G35U, the self-cleavage was 0.61. Variant G2U A4C U38G G44U has a self-cleavage of 0.01. In the case of G2C U32G U34G, the self-cleavage is reported as 0.3. G2C G44A C46A showed a self-cleavage of 0.1. With G2U A41G C42G C46G the self-cleavage was 0.01. Variant G2U A6C A11G has a self-cleavage of 0.04. For G2U C3G G29C, the self-cleavage was 0.43. Work on G2U A14C G19U A24U C46A yielded a self-cleavage of 0.01. In the case of G2U A12G G35U G40A U43C G44A, the self-cleavage is reported as 0.01. Variant G2U C8G G17A A39G has a self-cleavage of 0.05. For G2U C8U C15A C18G A24G A26U, the self-cleavage was 0.01.
